# Assay results published in ChEMBL document CHEMBL1201862, “PubChem BioAssay data set” (2004).
# Tested on: NCI-H322M
# Assay: inhibition of tumour cell growth, NCI panel, 48 h
row,Compound,GI50
1,CC(=O)C(/N=N\C1CCC(S(=O)(=O)NB2N=CS2)CC1)C(=O)Nc1ccccc1C (stereo unspecified),inactive: 16.8 µM
2,CC12CP(=O)(c3ccccc3)CC1C2(Cl)Cl (stereo unspecified),inactive: > 100 µM
3,O=C(Cc1nc2ccccc2s1)NC12CC3CC(CC(C3)C1)C2,inactive: > 100 µM
4,COc1c(C(=O)O)cccc1-c1cccc(C(=O)NCCN(CCNC(=O)c2cccc(-c3cccc(C(=O)O)c3OC)c2OC)CCNC(=O)c2cccc(-c3cccc(C(=O)O)c3OC)c2OC)c1OC,inactive: 28.7 µM
5,COP(=O)(OC)C(NC=O)P(=O)(OC)OC,inactive: > 100 µM
6,O=C(CCc1cc(-c2ccccc2)[nH]c(=S)n1)Nc1ccccc1[N+](=O)[O-],inactive: > 100 µM
7,OC[P+](CO)(CO)C12CC3CC(CC(C3)C1)C2,inactive: > 100 µM
8,CC[C@@]1(O)C(=O)OCc2c1cc1n(c2=O)Cc2c-1nc1ccccc1c2/C=N\NC(=O)C(N)=O,inactive: 15.8 µM
9,Cc1ccc2c(O)c3c(cc2c1)C(=O)c1c2c(cc(O)c1C3=O)C1(C)OC(O2)C(O)C(N(C)C)C1O (stereo unspecified),inactive: 1.53 µM
10,COc1ccc2nc(-c3ccc(OCc4ccccc4)cc3)ccc2c1,inactive: > 100 µM
11,CCOC(=O)N1c2c(ccn2C)-c2ccn(C)c2N1C(=O)OCC,inactive: 20.6 µM
12,COS(=O)c1cc(Cl)cc(Cl)c1OC(=O)CSSCC(=O)Oc1c(Cl)cc(Cl)cc1S(=O)OC (stereo unspecified),inactive: 11.5 µM
13,Oc1ccc[nH]c1=[Se],inactive: 87.1 µM
14,OCC1OC(n2nc(-c3ccccc3)nc2-c2cnccn2)C(O)C1O (stereo unspecified),inactive: > 100 µM
15,Cc1nc2c(=O)n(C)c(=O)n(C)c2o1,inactive: > 100 µM
16,CC(C)(O)/C1=C/C=C/CCCCCCCCCC1,inactive: > 100 µM
17,Cc1cccc(NC(=O)C(=O)C(C(=O)c2ccccc2F)C2OC(=O)c3ccccc32)c1Cl (stereo unspecified),inactive: 19.7 µM
18,Cc1c2c(cc3c1C(=O)C(O)=C([C@@H](C)CO)C3=O)C(C)(C)CCC2,inactive: 28.3 µM
19,Cc1ncc([N+](=O)[O-])n1CCn1ccnc1[N+](=O)[O-],inactive: > 100 µM
20,COc1cc2c(cc1NC(=O)c1ccccc1)c1c(n2S(=O)(=O)c2ccccc2)CCN(S(=O)(=O)c2ccccc2)C1,inactive: > 100 µM
21,Nc1ccc2c(c1)C1=NNC(=O)CC1C2 (stereo unspecified),inactive: > 90.6 µM
22,CCOC(=O)c1ccc(NCC#CCN2CCOCC2)cc1,inactive: > 100 µM
23,Cc1cccc(/C=N/NC(=S)NC2CCCCC2)n1,inactive: 31.3 µM

row,Compound,GI50
1,CC(C)(C)OC(=O)N[C@H]1CC2(C=C(Cl)C(=O)C(Cl)=C2)OC1=O,inactive: > 53.3 µM
2,C(/c1ccco1)=c1/nc(-c2ccccc2)n2c1nc1ccccc12,inactive: 1.63 µM
3,O=C1C2=Cc3ccccc3CCN2c2ccc([N+](=O)[O-])cc21,inactive: > 100 µM
4,Nc1ccc(Cc2ccc(N)c(C(=O)O)c2)cc1C(=O)O,inactive: > 100 µM
5,Cc1cc(/C=C/c2cc[n+](C)c3ccccc23)c(O)c2ncccc12,inactive: 2.14 µM
6,COC(=O)c1sc(C(=O)OC)c2c1CSC2,inactive: > 100 µM
7,Nc1nc(N)c(C2=CCN(Cc3ccccc3)CC2)c(=O)[nH]1,inactive: > 100 µM
8,CC(=O)N(C)c1ccc2ncccc2c1[N+](=O)[O-],inactive: > 100 µM
9,CSC12c3cc(C)n(-c4ccccc4)c3CC(C)(C)CN1C(=O)C2Oc1ccccc1 (stereo unspecified),inactive: 30.7 µM
10,CCN(C(=O)N[C@@H](Cc1ccccc1)C(=O)N[C@@H](CC(C)C)C(=O)NC)c1ccccc1,inactive: > 100 µM
11,CC(C)(Oc1ccc(/C=C/C(=O)c2ccccc2)cc1)C(=O)Nc1c(Cl)cccc1Cl,inactive: > 10 µM
12,Cn1c(=O)c(C2c3ccccc3Oc3c2c(=O)n(C)c2ccccc32)c(O)c2ccccc21 (stereo unspecified),inactive: 64.6 µM
13,CC1(C)OC(=O)C2(O1)C(=O)C1CCCCC12 (stereo unspecified),inactive: > 100 µM
14,O=S(=O)(CCn1c(Sc2ccccc2)c(Sc2ccccc2)c2ccccc21)c1ccccc1,inactive: > 100 µM
15,CCOC(=O)C1(C(=O)OCC)C[C@H]2CON=C2[C@@H]1c1ccc(C(F)(F)F)cc1,inactive: > 100 µM
16,Oc1ccc(Oc2cc3c(cc2Oc2ccc(O)cc2)-c2nc-3nc3[nH]c(nc4nc(nc5[nH]c(n2)c2cc(Oc6ccc(O)cc6)c(Oc6ccc(O)cc6)cc52)-c2cc(Oc5ccc(O)cc5)c(Oc5ccc(O)cc5)cc2-4)c2cc(Oc4ccc(O)cc4)c(Oc4ccc(O)cc4)cc32)cc1,inactive: 80.7 µM
17,C=C1c2nc3ccccc3n2C=C(c2ccccc2)N1c1ccccc1,inactive: > 100 µM
18,O=S(=O)(O)c1cc(S(=O)(=O)O)c2cc(/N=N/c3ccc(/N=N/c4ccc(/C=C/c5ccc(/N=[N+](/[O-])c6ccc(/C=C/c7ccc(/N=N/c8ccc(/N=N/c9ccc%10cc(S(=O)(=O)O)cc(S(=O)(=O)O)c%10c9)cc8)cc7S(=O)(=O)O)c(S(=O)(=O)O)c6)cc5S(=O)(=O)O)c(S(=O)(=O)O)c4)cc3)ccc2c1,inactive: 21.3 µM
19,Oc1nc2nc3ccccc3nc2nc1O,inactive: > 100 µM
20,C[C@@H]1CC[C@H]2[C@H](C)C(OC3O[C@@H]4O[C@@]5(C)CC[C@H]6[C@H](C)CC[C@@H]([C@@H]3C)[C@@]46O5)O[C@@H]3O[C@@]4(C)CC[C@@H]1[C@]32O4 (stereo partly specified),inactive: > 100 µM
21,COC(=O)[C@@]12CN(C)[C@@H](C(C)(C)C)N1C(=O)OC2c1ccccc1 (stereo partly specified),inactive: > 100 µM
22,CN(C)c1ccc(/C=C2\CCCCCC2=O)cc1,inactive: > 100 µM
23,Oc1ccc(-c2nc3ccccc3s2)cc1,inactive: 29.4 µM

#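 Dose response: 5 concentrations. Exposure: 48 h. Format: 96-well plates. Endpoint: linear interpolation; highest concentration if not reached. GI50 = concentration required for 50% inhibition of growth.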 The source made the active and inactive calls. No stated cut-off is given here; in the data, active = GI50 up to about 1.1 µM and inactive = higher.
